Measurements taken from patent US20090291088A1, “THERAPEUTIC COMBINATIONS OF ANTI-IGF-1R ANTIBODIES AND OTHER COMPOUNDS” (Biogen Idec MA Inc., priority 2008, published 2009).
Blank lines part the entries; values can stand above or below the molecule they belong to.

Tests used:
[1] = target: T1, recombinant human IGF-1R-10His (Homo sapiens, UniProt P08069); test: SPR, antibodies and Fabs on IGF-1R-His captured via PENTA-His antibody; type: binding; details: Fab fragment; 25° C.
T1 construct: denoted hIGF-1R(1-902)-His10, was purchased from R&D systems (Cat. No. 305-GR-050); purchased R&D Systems 305-GR-050
Procedure: Method: The binding activity of M13-C06, M14-C03, and […] to soluble IGF-1R was measured using surface plasmon resonance. Biotinylated PENTA-His Antibody (Qiagen, Inc.) was immobilized onto a Streptavidin coated Sensor Chip. Soluble/Dimeric IGF-1R-His ectodomain (R&D systems, Inc.) was captured on the surface via the PENTA-His antibody. Secondary injections of M13-C06, M14-C03, or M14-G11 Fabs (0.5 nM-100nM) were performed. The surfaces were regenerated with three short injections of acetate, pH 4.0.
M13-C06, M14-C03, and M14-G11 Fab antibodies were prepared by digestion with immobilized papain (Pierce Cat. No. 20341 (Pierce Biotechnology, Inc., Rockford, Ill.)). The papain resin was washed with 20 mM sodium phosphate pH 7.0; 10 mM EDTA; 20 mM Cysteine. Antibodies were mixed with the papain resin in 500 mM EDTA, 100 mM Cysteine pH 7.0 and digested for three hours in a 37° C. water bath followed by mixing on an inverting shaker overnight at room temperature. Completion of each digestion was determined by analytical size exclusion chromatography (SEC). The resin was removed from the digested protein with a sintered glass funnel filter and washed with 20 mM acetate pH 5.0. The flowthrough was collected and diluted 10-fold with 20 mM acetate pH 5.0. Fab fragments were purified by S-SEPHAROSE™ cation exchange chromatography using a linear salt gradient. […]

BxPC3 = test: Cell cycle arrest of BxPC3 cells (propidium iodide FACS); type: cell-based, human; details: 133.3 nM antibody, IGF-1 at 200 ng/ml, 24 hours
Procedure: Method: The ability of fully human IGF-1R antibodies to arrest cell cycle progression was assessed by FACS analysis; monitoring incorporation of propidium iodide in cultured BxPC3 cells. BxPC3 cells (4×10^5 cells/well) were plated into 6 well plates. After 24 hours, cells were changed to serum-free media (SFM) for the following 24 hours. […] After 24 hours, the cells were trypsinized and fixed with ethanol. DNA content was stained with propidium iodide (PI) prior to FACS analysis. An isotype matched antibody, IDEC-151 (human G4), was used as a negative control.

IGF-1R = IGF-1R (Homo sapiens, UniProt P08069); test: Ligand blocking assay (RIA): 125I-IGF-1 / 125I-IGF-2 binding to immobilized IGF-1R; parameters: human IGF-1R(1-903)-Fc (denoted hIGF-1R-Fc, generated by Biogen Idec); details: 100 nM-0.01 nM antibody, IGF-1R-Fc
From the text: Ligand blocking assay (RIA). […] Insulin (Arg-Insulin, Cat #01-207) was purchased from Upstate Cell Signaling Solutions (Lake Placid, N.Y. (now part of Millipore, Concord, Mass. (USA)). ^125I-rhIGF-1 (Cat # IM172), ^125I-rhIGF-2 (Cat# IM238) and ^125I-rhInsulin (Cat# IM166) were purchased from Amersham Biosciences (Piscataway, N.J.). AffiPure goat anti-human IgG, Fcγ fragment specific antibodies (Cat #109-005-098, Jackson ImmunoResearch, West Grove, Pa.) was used for IGF-1R-Fc capture. As detection antibody, goat anti-mouse IgG HRP (Cat #1030-05, Southern Biotech Birmingham, Ala.) was used.
Human insulin receptor α-subunit specific antibodies, Clone 83-14, (Cat #AHR0221, Biosource International, Inc., Camarillo, Calif.) and the 47-9 (Cat #E55502M, Biodesign International, Saco, M E) were used as positive controls blocking of insulin-insulin receptor binding experiments. Recombinant IGF-1R-Fc fusion protein was produced at Biogen Idec (Cambridge, Mass.).
As isotype matched mouse negative control antibodies, 2B8 (murine α-CD20.1gG,) and 2B8 mkm.G2a (murine α-CD20 MAb, IgG2a, Biogen Idec, Lot #NB3304-87, San Diego, Calif.) were used. The negative control for Fabs was R001-1B provided by Christilyn Graff (Biogen Idec, Cambridge, Mass.). PBS used in buffers was from BioWhittaker (Cat. # 17-513F, Walkersville, Md.).
Recombinant human IGF-1R (Histidine tagged version) or IGF-1R-Fc was coated onto IMMULON2 HB (high binding) Removawell strips (Dynex Technologies, Inc., cat. #6302) diluted with carbonate coating buffer pH 9.5 to a concentration of 250 ng/well. After overnight incubation at 4° C., the wells were washed three times with washing buffer (0.05% Tween 20/PBS) then blocked with blocking buffer (3% BSA/PBS) for one hour at room temperature. The blocking buffer was removed and the wells washed three more times. Antibody, Fab, or ligand preparations were diluted to desired concentration with dilution buffer (1% BSA/0.05% Tween 20/PBS) and plated at 50 μl per well in duplicate. After 45 minutes at room temperature, 100,000 cpm of either [125I] rhIGF-1 or [125I] rhIGF-2 in 50 μl dilution buffer was added per well. This was incubated at room temperature for one more hour. The wells were washed again three more times and left liquid free after the last wash. The air-dried wells were counted with the Isodata Gamma Counter.
Alternatively, Fabs were evaluated by a modified capture assay, where the IGF-1R-Fc was captured using anti-human IgG immobilized to a plate. Immobilization was carried out by overnight incubation of goat anti-human IgG, Fcγ fragment specific antibody (200 ng/well) in carbonate coating buffer. The wells were washed, blocked and 250 ng of IGF-1R-Fc was added per well.
The ligand blocking ability of the anti-IGF-1R antibody was determined by a solid phase RIA capture method as described in Example 3. […] After 1 hour of incubation at room temperature, the wells were washed and counted for bound radioactivity by a Gamma Counter. An isotype matched negative antibody control, IDEC-151 (human G4), was used. Percent (%) inhibition was calculated as =[1−(Ave.CPM with Ab)/(Ave.CPM with buffer)]×100%.

[2] = target: T1, recombinant human IGF-1R-10His; test: SPR, antibodies and Fabs on IGF-1R-His captured via PENTA-His antibody; type: binding; details: full-length antibody; 1:1 binding model, approximate; 25° C.

B2: M14-G11.G4.P.agly: full-length aglycosylated human IgG4.P version of Fab M14-G11 (antibody)
heavy: EVQLLESGGGLVQPGGSLRLSCAASGFTFSNYPMYWVRQAPGKGLEWVSRISSSGGRTVYADSVKGRFTISRDNSKNTLYLQMNSLRAEDTAVYYCARDRWSRSAAEYGLGGYWGQGTLVTVSSASTKGPSVFPLAPCSRSTSESTAALGCLVKDYFPEPVTVSWNSGALTSGVHTFPAVLQSSGLYSLSSVVTVPSSSLGTKTYTCNVDHKPSNTKVDKRV[human IgG4 Fc with S228P T299A (EU numbers) not written out]
light: DIQMTQSPDSLAVSLGERATINCKSSQSVLYSSNNKNYLAWYQQKPGQPPKLLIYLASTRESGVPDRFSGSGSGTDFTLTISSLQAEDVAVYYCQQYYSTWTFGQGTKVEIKRTVAAPSVFIFPPSDEQLKSGTASVVCLLNNFYPREAKVQWKVDNALQSGNSQESVTEQDSKDSTYSLSSTLTLSKADYEKHKVYACEVTHQGLSSPVTKSFNRGEC
- cell cycle arrest (BxPC3): arrested the BxPC3 tumor cells at the G0/G1 phase
- blocking of IGF-1 and IGF-2 binding to IGF-1R (IGF-1R): block both IGF-1 and IGF-2 binding

B3: M14-G11_Ab (antibody)
heavy: B2 heavy
light: B2 light
- ka [2]: 1e+06 M⁻¹ s⁻¹
- kd [2]: 0.00011 s⁻¹

Continued, values first:

- ka [1]: 300000 M⁻¹ s⁻¹
- kd [1]: 0.0012 s⁻¹
B1: M14-G11_Fab (antibody, V domains shown)
VH: EVQLLESGGGLVQPGGSLRLSCAASGFTFSNYPMYWVRQAPGKGLEWVSRISSSGGRTVYADSVKGRFTISRDNSKNTLYLQMNSLRAEDTAVYYCARDRWSRSAAEYGLGGYWGQGTLVTVSS
VL: DIQMTQSPDSLAVSLGERATINCKSSQSVLYSSNNKNYLAWYQQKPGQPPKLLIYLASTRESGVPDRFSGSGSGTDFTLTISSLQAEDVAVYYCQQYYSTWTFGQGTKVEIK

- ka [2]: 1.8e+06 M⁻¹ s⁻¹
- kd [2]: 0.00025 s⁻¹
B4: M13-C06_Ab (antibody)
heavy: EVQLLESGGGLVQPGGSLRLSCAASGFTFSIYRMQWVRQAPGKGLEWVSGISPSGGTTWYADSVKGRFTISRDNSKNTLYLQMNSLRAEDTAVYYCARWSGGSGYAFDIWGQGTMVTVSSASTKGPSVFPLAPCSRSTSESTAALGCLVKDYFPEPVTVSWNSGALTSGVHTFPAVLQSSGLYSLSSVVTVPSSSLGTKTYTCNVDHKPSNTKVDKRV[human IgG4 Fc with S228P T299A (EU numbers) not written out]
light: DIQMTQSPLSLSASVGDRVTITCQASRDIRNYLNWYQQKPGKAPKLLIYDASSLQTGVPSRFGGSGSGTDFSFTIGSLQPEDIATYYCQQFDSLPHTFGQGTKLEIKRTVAAPSVFIFPPSDEQLKSGTASVVCLLNNFYPREAKVQWKVDNALQSGNSQESVTEQDSKDSTYSLSSTLTLSKADYEKHKVYACEVTHQGLSSPVTKSFNRGEC
